Structures are written as SMILES. Where a structure was tested more than once in an assay, its records may differ in their call.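 Percent growth is the endpoint: 0 to 100 indicates growth inhibition (40 means 60% inhibition), 0 means no net growth, and negative values indicate cell death.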 Some entries of the source have several records that differ or are many. They are shown here; other results are not. An entry can have further records. For part of these data: The screen tested this drug many times, at its own concentration, as given; one value stands for one run. Signs of the kind (2×) count equal records among those shown. Some values that stand alone complete this part of the results. Active and inactive are the calls of the source. How the source made its calls: active means growth percent below 10; inactive means the rest.

Assay [1] relates to NCI/ADR-RES ovarian. The experiment in a line: NCI-60 one-dose screen, 48 h (100 = growth as untreated, 0 = no growth, -100 = all killed). As to conditions: 25 µM.
In assay [2] the test system is T-47D breast. The description is as above. The following applies: 0.25 µM.

`COc1cccc2c1C(=O)c1c(O)c3c(c(O)c1C2=O)C[C@@](O)(C(=O)CO)C[C@@H]3OC1CC(N)C(O)C(C)O1` (stereo not given in full): the growth result in assay [1] (runs of 1998) was “inactive: 36.1, 15.7, 12.8, 24.6, 68.8, 42.1, 39.1, 23.9, 28.6, 28.8, 19.2, 29.6, 62.5, 40.1, 27.9, 55, 32.6, 46.5, 26.8, 41.7, 28.4, 36, 22, 31.9% and active: -25%, -6.44%, -5.04%”; in assay [1] (runs of 1999), “inactive: 58.8, 48.5, 52.4, 22.2, 44.6, 26.4, 16.9, 11.2% and active: -67.9, 4.51, 6.75, 5.93, 7.28, 5.29, -24.8, 2.94%”; in assay [1] (runs of 2000) it was “active: 0.303, -4.78, 7.21, 1.81%”; in assay [2] (runs of 2006) it was inactive: 11.8%; in assay [2] (runs of 2007), “inactive: 16.3, 27.8, 22.2, 20.7, 26.5, 38.9, 31.7 (3×), 35.1 (2×), 34.8 (2×), 54.3, 41.7, 29.8, 33.7, 24.9, 20.1, 36.8, 47.6, 38.8, 32.9, 25.1 (2×), 27.9 (2×), 41.2, 43.8, 30.8, 25.4, 24.6, 25.3, 61.3, 60.4, 23.3, 16.7, 23.5, 34.9% and active: 2.2%, 9.94%”; in assay [2] (runs of 2008), “inactive: 26.4, 23, 23.2 (2×), 12.9 (3×), 18.4, 45.7, 35.3, 30.5, 35.6, 36.7, 31.2, 20 (2×), 16.1 (2×), 21, 16.8, 18.5, 15.8, 82.4, 10.6, 15.3, 13.3, 16.7, 18.9, 25.8, 24.6, 17.2, 12.5, 15.6, 33.3, 14.9, 19, 20.4, 17.6, 31.6% and active: 7, 7.6, 6.22, 4.51, 7.91, 5.27, -6.29, -5.91, 8.8, 2.65, 8.56%”. The growth entry is “inactive: 32.9, 23.6, 22.1 (2×), 16.4, 17.6, 17.5, 22, 29.4, 17.7, 20, 21.9, 31.4, 12.2, 26.8, 23.2 (2×), 23.5, 11.5, 16.5, 27.5, 13.4, 19.5, 23.8 (2×), 28.9, 30.4, 19.1, 10.5, 13, 39.5, 26.1, 10.6, 18.8 (2×), 30.5, 21.7, 30.8, 23.1, 11.3, 13.3, 12.8, 13.6, 15.6, 16.6, 20.7, 14.7, 19.6, 18.7, 15.1, 11.8, 20.2 (2×), 31.7, 27.1 (2×), 14.1, 10.2, 25.6, 23.3, 43.6, 33.4, 16.8% and active: 6, -6.43, 7.05, 9.29, 9.38, 8.66, 9.32%” in assay [2] (runs of 2009); “inactive: 29.8, 30.5 (2×), 27.9, 18.5, 30.3, 41.8, 33.4, 33.7, 38, 35.7, 38.3, 24.1, 16.6, 25.1 (2×), 25.7, 20.2, 21, 20.7, 20.8, 21.9, 24.8, 22.8, 24.9, 21.5, 24.5, 36.9, 41.4, 21.3, 18.6, 35.2, 28.1, 39.2 (2×), 37.3, 40.6, 41.3, 33.9 (2×), 35.4, 30.8, 43.5, 41.9, 40.1, 41.1, 36.7, 27.4, 50.6, 48.4, 50.7% and active: 7.99%” in assay [2] (runs of 2010); “inactive: 38.7, 43.6, 35.1, 33.2 (2×), 44.2, 50.4, 38.8, 43.5, 35.4, 38.3, 58.2, 46.1, 51.7, 37.9, 56.2, 41.4, 20.8, 41.8, 39.7, 46.8, 37.1, 31.6, 44.7, 49.1, 45.1, 26.7, 47.1, 26.4, 40.2, 31.2, 31.4, 13.2, 28.1, 29, 24.9, 27.7, 21.3, 20.5, 21.6, 34.8, 28.8, 40.1, 32.9, 30.5, 33.5, 26.6, 30.3, 28.3, 36.1 (2×), 37.7, 37.6, 35.2, 28.9%” in assay [2] (runs of 2011); “inactive: 33.3, 31.1, 39.8, 36.2, 58.3, 66.7, 39.5, 30.6, 36, 32.8, 37.2, 40.5 (2×), 20, 28.8, 32.7, 30, 28.2, 27.6, 28.5, 35.8, 46.5, 46, 46.9, 37.9, 39, 30.4, 44.5, 37.5, 31.5, 42.5, 38.4, 44.4, 41.9, 37.4, 42.4, 54.6, 39.2, 42.6, 49.3, 54.3, 57.8, 53.3, 62.1, 44.7, 50.5, 53.8, 54.7, 50.8, 36.7, 59.6, 57.4, 55.5, 65.2, 31.3, 27.9, 34.2, 30.5, 36.3, 39.4, 38.6, 35.2, 42, 35.5, 34.4, 33.4% and active: -2.07%” in assay [2] (runs of 2012); “inactive: 34.5 (3×), 36.8, 13.8, 15.6, 44.2 (2×), 42.7, 35.5, 35.6 (2×), 37.3, 38.2, 39.4 (2×), 47.4, 35.1, 32.8, 36 (2×), 32.1, 36.6, 42.4, 34.3, 46.1 (2×), 42, 54.8, 41.1, 41.9, 42.8, 42.1 (3×), 38.7 (2×), 36.2, 48.7, 38.5, 40 (2×), 39.7, 37.6, 31.3, 30.6, 35 (2×), 40.1, 50.4, 39.9, 41.7, 39.8, 39.1, 39, 27.8 (2×), 28.3, 20.8, 24.2, 16.8, 15.5, 19.3, 31.4, 20.2, 26.5, 32.4, 27, 23, 21.8%” in assay [2] (runs of 2013); “inactive: 31.9, 38, 16.3, 19.7 (2×), 14.7, 20.5, 14.8, 50.8, 26.7 (2×), 22.8, 33.6, 42.6, 24, 28.2 (2×), 29 (2×), 26.8, 36.2, 28.7 (2×), 26.5, 23.6, 29.4, 29.5, 31.7, 27.6, 30, 37.4, 36.9, 34.3, 22.4, 26.6 (2×), 26.4, 32.8, 28.8 (2×), 24.9 (2×), 29.1, 11.2, 20.3, 36.3, 35.6, 21.1, 25.6, 15.1, 15.8, 31 (2×), 17.4, 27.7, 28.6, 23.1, 22.3, 23, 28.9, 24.6, 27.2, 16.7, 23.4, 20.1, 24.8, 19.5, 19.8%” in assay [2] (runs of 2014). Further, the growth result in assay [2] (runs of 2015) was “inactive: 28.9, 31.1, 33.3 (2×), 34.8, 24.5, 33.2, 29.8, 30.8, 23 (4×), 16.4 (2×), 20.9 (2×), 17.6, 16.6, 36.1, 14, 19.6, 21.8, 12.2, 37.2 (2×), 25.4, 25.6, 27.7, 24.4, 41.2, 19.5 (2×), 31, 43.5, 23.2, 34.1, 41.3, 33.4, 23.3, 25.7, 29.4, 14.8 (2×), 27.1, 37.5, 20.5, 22.8 (2×), 31.6 (2×), 18.9, 21, 28.7 (2×), 31.3, 21.3, 19, 36.6, 45.6, 33.7, 22.6, 17.9, 19.4, 24.2, 36.2, 30.6, 28 (2×), 25.3, 32, 40.5, 33.8, 27.5, 32.5, 39.1, 39.4, 18.3, 38.8, 30.4, 46.4% and active: 7.22%, 7.68%”; in assay [2] (runs of 2016), “inactive: 33.9, 30.4, 20.8, 27.9 (2×), 38.6, 33.7, 21.6, 20.1, 21.1, 32.9, 28.1, 31.3, 20.6, 23.6, 26.4, 13.8 (2×), 15.8, 12.7, 23.3, 24.1 (2×), 24.5 (2×), 20.4, 27, 25.2, 20.9, 19.5, 33.4, 24.2 (2×), 30.6, 29.5, 37.1, 37.3, 35.1, 37.2, 30.3, 40.9, 33.5, 36.9, 39.9, 31.6, 41.2, 25.9, 30 (2×), 27.4 (2×), 32.8, 28.8, 26.1, 28.9, 22.3, 32.1, 31.7, 31.4 (2×), 41.3, 33.2, 42.5, 34 (2×), 46.3, 39.1, 37.5 (2×), 40.6, 38.3, 38.1, 36.2 (2×), 35.8, 23.8, 23.5, 25.8% and active: 8.64%, 9.18%”; in assay [2] (runs of 2017), “inactive: 28.2 (2×), 30.8, 21.7 (2×), 29.8, 36, 23.8 (2×), 32.9, 19, 22, 27.5, 21.4, 19.6, 30.1, 24, 29.4, 34.7, 26.7, 25.1 (2×), 23.7, 20.8, 22.4 (2×), 12.7, 26.1, 23.4, 21, 24.4 (2×), 26 (2×), 18.6, 26.3, 24.5, 27.2, 17.8 (2×), 24.2, 27.7, 19.9 (3×), 21.5, 22.2, 15.9, 22.1, 16.2, 23.1, 30.7, 17.2, 14.1, 22.3, 16.5, 12.9, 22.9, 17.7, 16.9, 16.6, 27.4, 24.9, 18.9, 21.6, 32.5, 35.3, 28.9, 25, 33, 34.3, 35, 37.4, 32.7, 31.1, 20.5, 22.8% and active: 7.87%”.

(Values after PubChem BioAssay (NCI).)
